# Measured values from publication PMC12136788.
# The list shows a part of the results.
# T1: UNK ZnF1-3 (human, UniProt Q9C0B0 31-174)
# T1 sequence: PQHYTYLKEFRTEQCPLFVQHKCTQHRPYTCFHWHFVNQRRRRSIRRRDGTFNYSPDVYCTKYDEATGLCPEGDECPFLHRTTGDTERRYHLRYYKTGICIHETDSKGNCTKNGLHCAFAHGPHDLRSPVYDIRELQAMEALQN
# B1: chr5:128440902:128440903:+_ENSG00000066583_ENST00000173527|hu_mus|hu_hu_hu_mus_True|38_108 (ssRNA)
# RNA: GGGAGUUCUACAGUCCGACGAUCUUGAACCGUGCUCCCAAGUCCUUUGGGGUAUUGUUCCGUUAUGAUAACUGGAAUCCCUAAGAUCCGAGCUCCUUGCAACAAUCUCUGUCCCACACUAAUGAUGUCCCCAAAGUAUUUGAUCAACAGAGGAUUGAGCAUCA
# B2: chr7:54823571:54823572:-_ENSG00000132432_ENST00000352861|hu_mus|hu_hu_hu_mus_False|48_48 (ssRNA)
# RNA: GGGAGUUCUACAGUCCGACGAUCUCCCAUGAUAGCAAAUCCUAUAGCUGUAGCCAUGGCAAUCUUCUGGAAUUCUUUUCUGUCGGGUUUAGUGCAUCUUUUAACCAGCCGAAUUGAGUCCUUUACAAACUGCCGGCUGGGCUCCAACAGAGGAUUGAGCAUCA
# B3: chrX:70926549:70926550:+_ENSMUSG00000019558_ENSMUST00000114465|mus_mus|motif|central (ssRNA)
# RNA: GGGAGUUCUACAGUCCGACGAUCCAGGCAGACCCCCAAACUGUCAAGGAAAGGCAAGCCCCCGGAGGGAUGAGUGGGGGCGGAAGUUGGGGCUGCUAUGGCUACCAAAGGAUGAGCUGGUGAUGUGAGCUGGGGGUGCCUGUUCAACAGAGGAUUGAGCAUCA
# B4: chr3:19126987:19126988:-_ENSMUSG00000069094_ENSMUST00000091314|mus_hu|FALSE|FALSE (ssRNA)
# RNA: GGGAGUUCUACAGUCCGACGAUCUAAAAAAAAUUGCAUUGCCAAACGGCACUGGAGUGAAAGCUUGGCGGUACUCUACGAUAAAUGCUCAGUUUCCAGUGCAUGAAAUAAAACUAUAGCAAAUGGGAGGCUUUGGUGGCAUCCCAACAGAGGAUUGAGCAUCA
# B5: chr9:57400063:57400064:-_ENSMUSG00000032306_ENSMUST00000034856|mus_mus|FALSE|FALSE (ssRNA)
# RNA: GGGAGUUCUACAGUCCGACGAUCCAGGCAUGCCACUUCACUUUUGGAGCCCACCUUCCCCCAGGCAUACUGCUGCACCACACAGGAAAGUGGGAACACUCGCGGACUCGCCAUCCCAGUUGCCUGAAACCCGGCUUCAGGAACCAACAGAGGAUUGAGCAUCA
# B6: chr17:65740002:65740003:+_ENSG00000130935_ENST00000581375|hu_hu|hu_hu_hu_mus_False|1_68 (ssRNA)
# RNA: GGGAGUUCUACAGUCCGACGAUCAACAAAUCUUUCUUCCCUGGACGAACAGGAAGAUUCAUAUUAACUUUAUAAAAUAUCCAUCAAGUUAGGUGUGGUGGCCACACCUUUACUCCCAGCACUUUGGGAGGUGGAUCCUCUAUUCAACAGAGGAUUGAGCAUCA
# B7: chr11:46405157:46405158:+_ENSG00000110492_ENST00000395566|hu_hu|hu_hu_hu_mus_False|78_88 (ssRNA)
# RNA: GGGAGUUCUACAGUCCGACGAUCCCCUCCCCACUUUGGGCACUUGGUGAGAGGGACAAGGCAGGGCCGUGAUUGACAGAGCUGACAGGAAGACAAAAGGCACUGGUGGGUUAUAUCUUGGGCCUGUGGGAGAGGAGGGCUCCGCAACAGAGGAUUGAGCAUCA
# B8: chr10:20042908:20042909:+_ENSMUSG00000037608_ENSMUST00000043881|mus_hu|FALSE|FALSE (ssRNA)
# RNA: GGGAGUUCUACAGUCCGACGAUCGGAACGUGAACGACCUCGUCUAGGACUCCUAGAGUGCCUUCUAUUCCAGACAGGUCUAUAACCACCUCGAUGAUAUCUACCUCCUCCUCCUUGAUAAUACCCUCUACCCCUUCCUCUGUACAACAGAGGAUUGAGCAUCA
# B9: chr16:94651144:94651145:+_ENSMUSG00000040785_ENSMUST00000117648|mus_mus|motif|central (ssRNA)
# RNA: GGGAGUUCUACAGUCCGACGAUCCUUCUCUUGGAUCAAGUGACCGAUAACAUAGUCCACUGCUUCAUGGACAAAAUUUUUGCGGGAAAAGCAUGUUGUAUAGUCUUCCGUGCUCAGAACCUUCCAAGAGAGCAGCUCUUUGAGCAACAGAGGAUUGAGCAUCA
# B10: chr11:87793471:87793472:-_ENSMUSG00000020483_ENSMUST00000020775|mus_mus|mus_mus_mus_hu_False|38_38 (ssRNA)
# RNA: GGGAGUUCUACAGUCCGACGAUCUGGACUUGAAAAUAAAAGAAUAAGCUGGAUCCCCCACCCCCCCACAUUGUCAACCCUACACGAGAGUUUUGAAUGAUUCAUAAGAAAAUCAGCAGCUCAAACGGCAAUGACCACCCCACCCAACAGAGGAUUGAGCAUCA
# B11: chr2:179515052:179515053:+_ENSMUSG00000000305_ENSMUST00000000314|mus_hu|mus_mus_mus_hu_False|18_68 (ssRNA)
# RNA: GGGAGUUCUACAGUCCGACGAUCGCUGUCCCAUGCAGUCACCGUGAACGCCACCUGCUCGGAGGGGAUCUUCAACUCCCGGGUGGCGAAGACUGUCCCAUCUGCCCCAACUUUGAAGUCCAAGCUGUUGGUCUCAUAUUGUGUCAACAGAGGAUUGAGCAUCA
# B12: chr7:109059925:109059926:+_ENSMUSG00000030842_ENSMUST00000033131|mus_mus|FALSE|FALSE (ssRNA)
# RNA: GGGAGUUCUACAGUCCGACGAUCCAGGUUAGGUACUGUAGAGAGCCACAGUGAGGCUGGGGGCCAGAAGAGGUGGGGUGGAGACGGGGUGAAGACGAGGGAAGAGCUGUCCUAGGGCCCCUCUCUUCAUGGGAUCCCAAACUGCAACAGAGGAUUGAGCAUCA
# B13: chr2:174291214:174291215:-_ENSMUSG00000016257_ENSMUST00000016401|mus_mus|motif|central (ssRNA)
# RNA: GGGAGUUCUACAGUCCGACGAUCUUUUGUUUAGAUCAAAAGUCACAGCCUUACCCCACCUCAUUAAAAAAAAAGAUCGGCCGGAAAUAAUUGUGUCUUUUAAAUAACAAAUAAUAUGAUGCCAGCUUGAGAGUCCUGGAGCCCCAACAGAGGAUUGAGCAUCA
# B14: chr4:106906351:106906352:-_ENSMUSG00000028617_ENSMUST00000030360|mus_mus|FALSE|FALSE (ssRNA)
# RNA: GGGAGUUCUACAGUCCGACGAUCCCUCGUACUGAGGUGGGGGAGGUCGACUGUAUGUGUCAGUCAGUAGGAAUUGAGCAAAUCCCAAUCUUCCACAGCCAGACACACACACUUCUGCUUGGCCGACUGGGGCGAGCUCUGCUCCAACAGAGGAUUGAGCAUCA
# Target: T1, UNK ZnF1-3
# Test: nsRBNS (natural sequence RNA bind-n-seq); RBNS binding buffer (assumed for nsRBNS): 25 mM Tris pH 7.5, 150 mM KCl, 3 mM MgCl2, 0.01% Triton X-100, 500 ug/ml BSA, 20 U/ml SUPERase-In, 4 C; UNK is unkempt and MSI1 is Musashi-1; names of the RNAs are library labels; protein concentration not given here; high values mean tight binding
row,Binder,binding signal
1,B1,0.712 enrichment R
2,B2,0.708 enrichment R
3,B3,1.48 enrichment R
4,B4,1.18 enrichment R
5,B5,0.936 enrichment R
6,B6,0.792 enrichment R
7,B7,1.7 enrichment R
8,B8,0.769 enrichment R
9,B9,0.614 enrichment R
10,B10,2.16 enrichment R
11,B11,0.678 enrichment R
12,B12,1.24 enrichment R
13,B13,2.64 enrichment R
14,B14,0.559 enrichment R
